# In the supplement of paper PMC12217912:
# Some of the results follow. Sequences were assembled here from the parent chain. Inactive controls read about 0.05.
# B1: TEV protease; numbered along this chain (parent)
# chain: MGESLFKGPRDYNPISSSICHLTNESDGHTTSLYGIGFGPFIITNKHLFRRNNGTLVVQSLHGVFKVKDTTTLQQHLVDGRDMIIIRMPKDFPPFPQKLKFREPQREERICLVTTNFQTKSMSSMVSDTSCTFPSGDGIFWKHWIQTKDGQCGSPLVSTRDGFIVGIHSASNFTNTNNYFTSVPKNFMELLTNQEAQQWVSGWRLNADSVLWGGHKVFMVKPEEPFQPVKEATQL
# Variants of: B1
# Assay: raw area under fraction-flipped curve 0-4 h after induction (AUC4h, not background-subtracted), DNA-recorder readout of cleavage of the substrate (dimensionless); higher = more cleavage of the substrate by the protease variant
# Conditions: temperature: 34 °C; time window: 0-4 h after rhamnose induction
# Protocol: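 In vivo DNA recorder in E. coli TOP10(DE3) ΔrhaA at 34 °C. Each TEVp single-site mutant (parent TEVp 0) is paired with a single-site variant of the 7-mer TEVs (canonical ENLYFQ|S). The substrate sits between flexible linkers in a Bxb1-sfGFP-TEVs-SsrA fusion, so cleavage stabilises Bxb1 and speeds flipping of a recombination array, read by NGS. The value is the raw area under the fraction-flipped curve over 0-4 h after rhamnose induction (AUC4h), with ≥20 reads per time point. It is not background-subtracted; inactive controls average about 0.047.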
# 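Note: Bxb1 expression induced with 0.2% (w/v) L-rhamnose at OD600 near 0.5, cultures sampled hourly, flipped fraction per protease–substrate barcode pair counted by paired-end Illumina sequencing.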
Variant,area with substrate CNLYFQS,area with substrate HNLYFQS,area with substrate INLYFQS,area with substrate MNLYFQS,area with substrate SNLYFQS,area with substrate WNLYFQS,area with substrate GNLYFQS,area with substrate KNLYFQS,area with substrate NNLYFQS,area with substrate PNLYFQS,area with substrate TNLYFQS,area with substrate VNLYFQS,area with substrate YNLYFQS,area with substrate LNLYFQS,area with substrate FNLYFQS,area with substrate QNLYFQS,area with substrate DNLYFQS,area with substrate RNLYFQS
Q146N,0.087,0.0658,0.066,0.0521,0.0679,0.0606,,,,,,,,,,,,
M122Y,0.0616,0.0699,,0.0517,0.0848,0.0701,0.0723,0.0788,0.0544,0.0694,0.0552,0.0712,0.0583,,,,,
M122P,0.0761,0.0606,0.0536,,0.0731,0.0643,,0.0609,,0.056,0.0722,0.0623,,0.0667,,,,
M122K,0.0622,0.0506,,,,0.0553,0.0763,0.0627,0.0891,,0.0528,0.0504,0.0664,,,,,
Q118H,0.0771,,0.0755,,,0.0709,,0.083,0.0564,0.0684,0.0719,,,0.0552,0.0766,0.0548,,
Q118F,0.0758,0.0635,,0.0763,0.0553,0.0672,,0.0492,,,0.0619,,,0.0641,0.0582,,,
Q118G,0.0675,,0.0841,,,0.0516,0.0607,0.0664,,,0.067,,,0.0721,,,,
Q118N,0.0728,0.11,,0.0423,0.0684,,,,0.0637,0.0662,,,0.0512,,,,,
Q118A,0.0538,0.0545,0.0669,0.0636,0.0662,0.0682,0.0742,0.0836,,0.0702,,,0.0641,0.075,0.0699,,,
T147Y,0.0547,0.0579,,,0.0491,,,0.0697,0.0927,0.0533,0.0568,,,0.0468,0.044,,,
T129P,0.0674,0.0554,0.0652,,0.0745,0.0512,0.0619,0.0731,,0.0597,0.0598,,0.0589,0.0663,0.0618,0.0889,,
F117M,0.0647,,,,,,,,,0.0598,0.0566,,,,,,,
V126G,0.0614,,,,,0.0672,0.0596,0.0623,0.0622,,,0.0716,,0.073,,,0.0692,
N116A,0.0653,0.0823,,0.0738,0.0691,0.0617,,,0.0525,0.0604,0.0702,0.0669,0.0649,,0.0561,,,
G150F,0.0507,0.0485,,0.0696,0.065,0.063,0.0647,0.0739,,0.0567,0.0683,0.0583,0.0589,0.0539,0.0565,,,
G150L,0.0633,0.0607,0.0703,0.0617,0.0523,0.0636,0.057,0.0629,0.0512,0.065,0.0618,,0.0593,0.0524,0.0615,,,0.0559
T115C,0.0714,0.0734,0.0958,0.0469,,0.0612,,0.0707,0.063,0.0662,0.0628,0.0547,,,0.0783,,,

Variant,area with substrate CNLYFQS,area with substrate HNLYFQS,area with substrate INLYFQS,area with substrate MNLYFQS,area with substrate SNLYFQS,area with substrate WNLYFQS,area with substrate GNLYFQS,area with substrate KNLYFQS,area with substrate NNLYFQS,area with substrate PNLYFQS,area with substrate TNLYFQS,area with substrate VNLYFQS,area with substrate YNLYFQS,area with substrate LNLYFQS,area with substrate FNLYFQS,area with substrate QNLYFQS,area with substrate DNLYFQS,area with substrate RNLYFQS
I145C,0.0728,0.0683,,0.0613,,0.0554,0.0503,,0.0651,0.0824,0.0981,,0.0518,0.0732,0.0646,,,
Q151H,0.0582,0.0365,,,,0.056,0.0637,0.0625,0.0691,,0.043,0.0565,,0.0668,,,,
Q151S,0.0613,0.0628,0.0515,0.0707,,0.0826,0.0395,0.0554,,0.0743,0.0687,0.0699,,0.0568,0.0609,,,
F140P,0.0618,0.0501,,,0.075,0.0614,0.0629,,0.0492,0.0591,0.0553,0.0537,,0.0561,,0.0725,,
F140M,0.0525,,,,0.0663,,0.0835,0.0623,0.0574,,,,,0.0561,,0.0678,,
F140I,0.0535,0.061,0.0524,,0.0557,0.0557,0.0548,0.062,,0.0569,0.0629,0.0546,0.0556,0.0624,,,,
K148M,0.062,0.0643,,0.0709,0.0731,0.0536,,,0.0435,0.0757,0.0744,,0.0598,0.0574,0.0693,,,0.0682
K148N,0.0589,0.0628,0.0662,0.0714,0.0727,0.0548,0.0706,0.0568,0.0721,,0.0657,0.0627,0.0708,0.0624,0.052,,,0.057
K148T,0.0598,0.0583,0.0729,,,,0.0463,0.0546,,0.0439,0.0664,,,,,,,0.0414
T114M,0.0702,0.0428,,0.0871,0.0645,0.0769,0.0684,,0.0692,,0.0765,0.0624,0.0568,0.0779,0.0643,,,
I139Q,0.0572,0.0586,,0.0557,,0.0855,0.0574,0.0653,,,0.0592,,,0.0556,0.0606,,,
I139N,0.0503,0.0567,0.0624,0.0598,,0.0451,0.067,0.0668,,0.0642,0.0641,0.0465,0.0694,0.0757,,0.0581,0.0723,
M125L,0.0759,0.0678,,,,0.061,0.0666,,0.0634,0.0651,0.0637,,,,0.0503,,,0.0983
D149S,0.0689,0.0695,0.062,,,0.0622,0.0599,,,,0.0707,0.0677,0.0647,0.0572,,,,0.0586
D149Q,0.0611,0.0514,0.055,0.0503,,0.0553,,0.0772,0.0658,0.0673,0.0602,0.0621,0.0357,0.0558,,,,
F133D,0.058,0.0627,0.0614,,0.0784,0.0669,0.0731,,0.076,0.0713,0.0698,,,0.0775,0.0582,,,0.0593
